# From ChEMBL document CHEMBL4888484, “Replenishing the malaria drug discovery pipeline: Screening and hit evaluation of the MMV Hit Generation Library 1 (HGL1) against asexual blood stage Plasmodium falciparum ,using a nano luciferase reporter read-out” (2022)
# Among all 150,000 compounds or so, about 540 (0.36%) showed an effect of 50% or more. Some of the results follow.
# Tested on: Plasmodium falciparum
# Test: Primary screen in NF54 nanoGlo assay, in single point, at 2uM, 72h; a lower Z score goes with more inhibition
# Format: functional, Erythrocyte
# Details: timepoint 72 hour
SMILES,% Inhibition [%],Z score
C[C@@H]1CN(c2cccc(C(F)(F)F)n2)CC(=O)N1,-5,0.67
COc1ccc(C(=O)N(CC(=O)N2CCN(c3ccc(-c4ccc(OC)cc4)nn3)CC2)Cc2ccccc2)cc1,-4,0.39
COC1CCN(Cc2cn(Cc3ccccc3OC3CC3)nn2)CC1,14,-1.84
CCCc1nc(CN(C)C(=O)Cc2c(C)n[nH]c2C)no1,-2,0.37
CCN(c1ccc2sc(C(=O)N3CCCCCC3)cc2c1)S(C)(=O)=O,-17,2.23
CC1CC2CCCCC2N1C(=O)NCCCOC1CCOC1 (centres undefined),-10,1.14
CCCN(C[C@H]1CCCO1)C(=O)c1cc(NS(=O)(=O)c2ccccc2)cc2nc(C)n(CC)c12,-9,1.06
COc1ccsc1C(=O)N(C[C@H]1CCCO1)c1ccncc1,-11,1.19
Cc1nn(C)c(C)c1-c1ccnc(N2CCN(Cc3cccc(F)c3)C(=O)C2)n1,-23,3.36
CCc1nc(-c2ccc(C)c(S(=O)(=O)N3CCC(C(=O)N4CCCCC4)CC3)c2)no1,-3,0.35
CN(C[C@@H]1C[C@H](F)CN1Cc1nccn1C)S(=O)(=O)CC1CCC1(F)F (some centres undefined),6,-0.82
CC(C)(c1nnc2n1CCCCC2)n1cc(N)cn1,35,-3.91
COC(=O)[C@@H](Cc1cccnc1)NC(=O)[C@H]1CN(S(=O)(=O)c2ccccc2)CCN1C(=O)N1CCOCC1,-14,2.26
CC(C)C(=O)N1CC(C(=O)N2CCN(C)CC2)C(c2cccc(C(F)(F)F)c2)C1 (centres undefined),-15,1.69
O=C(Cc1nnn[nH]1)Nc1ccccc1Cl,17,-1.93
CN(CCc1ccccn1)c1ncccc1CNC(=O)[C@@H]1COC(=O)N1,-4,0.78
CN1CCCC[C@@H]1Cc1nc(CC(N)=O)nn1C(C)(C)C,-11,1.94
CCN(CC)C[C@@H]1OCC(NC(=O)CC(C)(C)C)[C@H]1O (some centres undefined),25,-2.84
COc1ccc(CNC(=O)c2ccc(-c3cccc(C)c3)[nH]c2=O)cc1,-10,1.27
CC1(C(=O)NCc2ccccc2S(C)(=O)=O)COC1,2,-0.3
Cc1noc(C)c1Cn1cc(-c2c[nH]nc2-c2ccccc2)nn1,-10,0.92
O=C(CC1C=CCC1)N1CCCC1c1ccc[nH]1 (centres undefined),-13,1.28
Cc1cc(C)n2ncc(CN3CCC(CNC(=O)c4oc(C)nc4C)CC3)c2n1,-12,2.24
CC[C@H](O)C1CCN(C(=O)c2cc(NC(=O)COC)cc3nc(-c4cccnc4)n(CC)c23)CC1,-11,2.11
Cc1ccoc1C(=O)NCCNC(=O)c1ccn[nH]1,-1,0.13
COc1cc(C(=O)NCCc2c(C)n3c4c(cccc24)CCC3)cc(OC)c1OC,-3,0.59

SMILES,% Inhibition [%],Z score
CCCCC1CCCC1NC(=O)N(C)CC (centres undefined),-4,0.38
Cc1c(Cl)ccc2ccc(NCc3ncnn3C)nc12,-10,0.98
Cc1ccc(N2C(=O)c3ccccc3[C@@H]2c2c[nH]c3ccccc23)cc1,63,-5.25
Cc1cc(C(=O)NC[C@H]2CCCO2)c2c(-c3ccccc3F)noc2n1,-28,3.26
Cc1cc(N2CCCC(NC(=O)N3CC[C@H]4CCCC[C@H]43)C2)n(C)n1 (some centres undefined),6,-0.9
COC(=O)c1c(NC(C)=O)c2cc(NC3CCOCC3)cnc2n1CCc1ccc(OC)cc1,42,-5.53
COC(=O)c1cc(C)nc2c1c(=O)n(CC(=O)Nc1ccc3c(c1)OCO3)c(=O)n2-c1ccccc1,-9,1.13
Cc1ccc(NCc2cc(=O)n3ccccc3n2)c(OCC(=O)N(C)C)c1,-5,0.94
CC(C)(CC(=O)OC(C)(C)C)NCc1nnn(C(C)(C)C)n1,16,-2.01
CCN1CCN(C[C@@H]2CN(c3ncnc4[nH]ccc34)C[C@@H]2CO)CC1,2,-0.44
NS(=O)(=O)N1CCN(Cc2ccn(C3CCCC3)n2)CC1,36,-4.79
Nc1nc(-c2ccc(Cl)cc2Cl)c(-n2cncn2)s1,-37,4.37
Cc1nc(C)c(CNC(=O)NC[C@@H]2COc3ccccc3C2)s1,-3,0.43
Cc1cnc(C(=O)N2CC3CCCCC3C2)cn1 (centres undefined),-10,1.19
CO[C@H]1C[C@@H](O)C12CCN(C(=O)C(c1ccccc1)c1ccccc1)CC2,5,-0.64
CNC(=O)[C@@H]1CCCCN1CC(c1ccccc1)c1ccccc1,17,-2.2
O=C(c1ccc(C(F)(F)F)cc1)N1CCN=C1N1CCCC1,-6,0.89
Oc1ccc2ncccc2c1[C@@H](Nc1ccccn1)c1cccc(Cl)c1,34,-3.9
CC(C)C(=O)N1CCC(NC[C@@H](c2ccccc2)N2CCCCCC2)CC1,-13,2.09
Cc1ccc(-c2nc(CNC(=O)C3=NNC(=O)CC3)[nH]c2-c2ccccn2)cc1,-22,3.58
Cn1c(C(=O)Nc2ccc(N3CCOCC3)cc2)cc2c1CCN(Cc1ccccc1)C2,-7,1.24
CCN1C(=O)C2(CCN(S(=O)(=O)c3cc(Cl)ccc3OC)CC2)c2ccccc21,-9,1.37
COc1ccc(Cl)cc1C(C)NC1CCC(=O)N(C)C1 (centres undefined),5,-0.98
COCCNc1nc(NCc2ccc(OC)cc2)nc(NCc2ccc(OC)cc2)n1,-9,0.82
O=C(C1CCCCC1)N1C[C@@H]2Oc3ncccc3S(=O)(=O)N[C@@H]2C1,5,-0.96
c1ccc(OCc2n[nH]c3c2CN(Cc2nc4c(s2)CCCC4)CC3)cc1,1,-0.12
